Values joined by “and” are separate entries in the source; they are usually repeats but may differ in a detail not shown here. Equal values may be shown once. Where a name gives a salt, the structure may show the parent alone. About 620 (11%) of roughly 5,800 compounds showed activity.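 Rule for the calls: active = score above a cut-off or among the top three wells of a plate; in these data no inactive exceeds 0.85.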 This is a selection; strong and weak results do not stand in their true shares.

The assay has as its system primary human hepatic stellate cells (donor 1). Put plainly: scaled lipid accumulation score (0 = DMSO-like, 1 = nortriptyline-like); higher = stronger HSC inactivation (lipid re-accumulation), active = hit call of the paper. To be noted: 48 h.
Where [1] appears, read: library stock concentration: 10 mM.
Setting [2] is: library stock concentration: 3.33 mM.
The mark [3] stands for this setting: library stock concentration: 1 mM.
Where [4] appears, read: library stock concentration: 80 uM.
[5] abbreviates: library stock concentration: 400 uM.
Setting [6] is: library stock concentration: 2 mM.

For `Cc1c(C(=O)NC2CCCCC2)sc2nc3ccc(N)cc3n12`, the “scaled lipid accumulation score” value under setting [1] is inactive: 0.02.

Take `COc1ccc(-n2c(C)c([N+](=O)[O-])c3ccc(O)cc32)cc1`: the “scaled lipid accumulation score” value under setting [2] was inactive: 0.252 and the “scaled lipid accumulation score” value under setting [1] was inactive: 0.703. For `O=S(=O)(c1ccccc1)c1cnc2c(N3CCNCC3)cccc2c1`, the “scaled lipid accumulation score” value under setting [2] was inactive: 0.285.

For `NC(=O)N/N=C/c1ccc([N+](=O)[O-])o1` [Nitrofural], the “scaled lipid accumulation score” value was inactive: ≤ 0. Also, the “scaled lipid accumulation score” value under setting [2] is inactive: ≤ 0. In addition, the “scaled lipid accumulation score” value under setting [1] was inactive: 0.049. With `NC(=O)N/N=C/c1ccc([N+](=O)[O-])o1` [Nitrofurazone], under setting [1], the “scaled lipid accumulation score” value is inactive: ≤ 0.

Consider `O=C(O[C@H]1CN2CCC1CC2)N1CCc2ccccc2[C@@H]1c1ccccc1` [Solifenacin succinate], for which the “scaled lipid accumulation score” value under setting [2] was inactive: 0.293. For the compound `O=C(O[C@H]1CN2CCC1CC2)N1CCc2ccccc2[C@@H]1c1ccccc1`, the “scaled lipid accumulation score” value under setting [1] was inactive: 0.352. For `CC1=CC(=O)NS(=O)(=O)O1`, the “scaled lipid accumulation score” value under setting [1] is inactive: 0.08. `CC1=CC(=O)NS(=O)(=O)O1` [Acesulfame Potassium]: the “scaled lipid accumulation score” value runs as follows: under setting [2], inactive: 0.002; under setting [1], inactive: ≤ 0.

Consider `CCCCC/C=C\C/C=C\C/C=C\C/C=C\CCCC(=O)OCC` [Arachidonic Acid ethyl ester], for which the “scaled lipid accumulation score” value under setting [3] was inactive: ≤ 0.

For the compound `CN(C)CCC[C@@]1(c2ccc(F)cc2)OCc2cc(C#N)ccc21` [Escitalopram Oxalate], the “scaled lipid accumulation score” value runs as follows: under setting [2], inactive: ≤ 0; under setting [1], inactive: 0.644. As to `CN(C)CCC[C@@]1(c2ccc(F)cc2)OCc2cc(C#N)ccc21` [Escitalopram], the “scaled lipid accumulation score” value (library stock concentration: 6.2 mM) is inactive: 0.197. As for `CN(C)CCC[C@@]1(c2ccc(F)cc2)OCc2cc(C#N)ccc21`, the “scaled lipid accumulation score” value under setting [1] was inactive: 0.614. On to `CCCC(=O)Nc1ncnc2c1ncn2[C@@H]1O[C@@H]2COP(=O)(O)O[C@H]2[C@H]1OC(=O)CCC` [Bucladesine], for which the “scaled lipid accumulation score” value under setting [1] was inactive: 0.091. On to `CCCC(=O)Nc1ncnc2c1ncn2[C@@H]1O[C@@H]2COP(=O)(O)O[C@H]2[C@H]1OC(=O)CCC` [Bucladesine sodium salt], for which the “scaled lipid accumulation score” value is inactive: ≤ 0. For the compound `CCCC(=O)Nc1ncnc2c1ncn2[C@@H]1O[C@@H]2COP(=O)(O)O[C@H]2[C@H]1OC(=O)CCC` [Dibutyryl-cAMP, sodium salt], the “scaled lipid accumulation score” value under setting [1] was inactive: ≤ -0.006. For `O=C(c1ccc(F)cc1)N1CCCC(c2nc(-c3ccc(F)cc3)no2)C1` (stereo not drawn), the “scaled lipid accumulation score” value is, setting by setting: under setting [2], inactive: ≤ 0; under setting [1], inactive: ≤ 0. Turning to `O=c1oc(-c2ccc(C(F)(F)F)cc2)nn1Cc1cc(Cl)ccc1O`, under setting [1], the “scaled lipid accumulation score” value is inactive: 0.172. For the compound `CC(=O)O[C@]1(C(C)=O)CCC2C3C=C(Cl)C4=CC(=O)CC[C@]4(C)C3CC[C@@]21C` (stereo partly drawn) [Chlormadinone acetate], the “scaled lipid accumulation score” value under setting [1] is active: 0.968. The same measure, in the same setting: for `CN1CCCC(n2nc(Cc3ccc(Cl)cc3)c3ccccc3c2=O)CC1` (stereo not drawn) the value was active: 1.21. `O=C(CNC(=O)c1ccc(Cl)cc1)NO` [Benurestat]: the “scaled lipid accumulation score” value (library stock concentration: 8.7 mM) is inactive: ≤ 0. As to `Cn1cc(-c2ccc(F)c(C(F)(F)F)c2)nc1C1CCN(c2ncnc3[nH]ncc23)CC1`, the “scaled lipid accumulation score” value runs as follows: under setting [4], inactive: 0.021; under setting [5], inactive: 0.015; under setting [6], inactive: 0.054; under setting [1], inactive: 0.371. Regarding `CCOC(=O)[C@H](CCc1ccccc1)N[C@H]1CCc2ccccc2N(CC(=O)O)C1=O` [Benazepril HCl], the “scaled lipid accumulation score” value under setting [2] is inactive: ≤ 0 and the “scaled lipid accumulation score” value under setting [1] is inactive: ≤ 0. For `CCOC(=O)[C@H](CCc1ccccc1)N[C@H]1CCc2ccccc2N(CC(=O)O)C1=O` [Benazepril hydrochloride], the “scaled lipid accumulation score” value under setting [1] is inactive: ≤ -0.027 and inactive: 0.038. On the same count and under the same terms, for `CCOC(=O)[C@H](CCc1ccccc1)N[C@H]1CCc2ccccc2N(CC(=O)O)C1=O` the value was inactive: ≤ 0. Take `COC1=C(OC)C(=O)C(CCCCCCCCCCO)=C(C)C1=O` [Idebenone]: the “scaled lipid accumulation score” value is inactive: ≤ 0 under setting [2], inactive: 0.007 (library stock concentration: 5.9 mM) and inactive: ≤ 0 under setting [1]. Regarding `Cc1nc(NC(=O)N2CCC[C@H]2C(N)=O)sc1-c1csc(C(C)(C)C)n1`, the “scaled lipid accumulation score” value is, setting by setting: under setting [4], inactive: ≤ -0.016; under setting [5], inactive: ≤ -0.016; under setting [6], inactive: ≤ -0.016; under setting [2], inactive: ≤ 0; under setting [1], inactive: ≤ 0 and inactive: ≤ -0.016. Take `O=C1CCC(c2ccc(-n3ccnc3)cc2)=NN1` [Imazodan]: under setting [1], the “scaled lipid accumulation score” value is inactive: ≤ -0.07. Consider `C=CC(=O)Nc1cc(NC(=O)c2ccc(C)c(NC(=O)c3ccno3)c2)cc(C(F)(F)F)c1`, for which the “scaled lipid accumulation score” value is inactive: ≤ 0 under setting [4], inactive: ≤ 0 under setting [5], inactive: ≤ 0 under setting [6] and inactive: 0.311 under setting [1]. As to `O=C(NCCCNc1nc(Nc2cccc(NC(=O)N3CCCC3)c2)ncc1I)c1cccs1`, the “scaled lipid accumulation score” value under setting [1] is active: 0.937. `NCC(O)c1ccc(O)c(O)c1` (racemic): the “scaled lipid accumulation score” value under setting [1] was inactive: ≤ 0. Regarding `CC(C)CCCCCCC/C=C/C(=O)O` [trans-.DELTA.2-11-methyl-Dodecenoic Acid], under setting [3], the “scaled lipid accumulation score” value is inactive: ≤ 0.

For `CCOC(=O)OC(C)OC(=O)[C@@H]1N2C(=O)[C@@H](NC(=O)[C@H](N)c3ccccc3)[C@H]2SC1(C)C` (stereo partly drawn) [Bacampicillin hydrochloride], the “scaled lipid accumulation score” value was inactive: ≤ 0. Under “library stock concentration: 4 mM”, the “scaled lipid accumulation score” value was inactive: ≤ 0. As for `CO/N=C(\C(=O)N[C@@H]1C(=O)N2C(C(=O)O)=C(CSc3nc(=O)c(O)nn3C)CS[C@H]12)c1csc(N)n1` [Ceftriaxone sodium trihydrate], the “scaled lipid accumulation score” value runs as follows: (library stock concentration: 3.1 mM) inactive: ≤ 0; under setting [1], inactive: ≤ -0.027 and inactive: 0.254. As to `CO/N=C(\C(=O)N[C@@H]1C(=O)N2C(C(=O)O)=C(CSc3nc(=O)c(O)nn3C)CS[C@H]12)c1csc(N)n1` [Ceftriaxone sodium], under setting [1], the “scaled lipid accumulation score” value was inactive: ≤ 0. With `Oc1ccccc1O` [Pyrocatechol], the “scaled lipid accumulation score” value under setting [1] is inactive: 0.09. Consider `COc1cc(OC)c2c(=O)[nH]c(-c3cc(C)c(OCCO)c(C)c3)nc2c1`, for which the “scaled lipid accumulation score” value under setting [2] was inactive: ≤ -0.009 and the “scaled lipid accumulation score” value under setting [1] was inactive: 0.135.

As for `O=C(c1cccc(Cl)c1F)N1CCN(Cc2cccc(Nc3nccs3)n2)CC1`, the “scaled lipid accumulation score” value by setting is: under setting [2], inactive: ≤ 0; under setting [1], inactive: 0.453. Consider `CC(C)[C@H]1C(=O)N[C@@H](CCCNC(=N)N)C(=O)NCC(=O)N[C@@H](CC(=O)O)C(=O)N[C@H](Cc2ccccc2)C(=O)N1C` [Cilengitide], for which the “scaled lipid accumulation score” value is, setting by setting: under setting [2], inactive: 0.272; under setting [1], inactive: 0.551. Consider `FC(F)(F)c1ccccc1-n1ccnc1` [1-[2-(Trifluoromethyl)phenyl]imidazole], for which the “scaled lipid accumulation score” value under setting [1] was inactive: ≤ 0.

On to `O=C(Cc1cccs1)N[C@@H]1C(=O)N2C(C(=O)[O-])=C(C[n+]3ccccc3)CS[C@H]12` [Cephaloridine], for which the “scaled lipid accumulation score” value under setting [1] is inactive: ≤ 0. With `CCCCOC(=O)NS(=O)(=O)c1sc(CC(C)C)cc1-c1ccc(Cn2c(CC)nc3c(C)cc(C)nc32)cc1`, the “scaled lipid accumulation score” value under setting [1] is inactive: 0.173. As for `CSc1ccc2c(c1)C(N1CCN(C)CC1)Cc1ccccc1S2.O=C(O)/C=C\C(=O)O` (stereo not drawn) [Methiothepin maleate], the “scaled lipid accumulation score” value under setting [1] was active: 1.41.

Take `Cl.C(=C\CCNC)(/c1c(cccc1)CC2)\c3c2cccc3` [Nortriptyline hydrochloride]: the “scaled lipid accumulation score” value is active: 1.13. With `NC1(C(=O)O)CCCC1` [Cycloleucine], under setting [1], the “scaled lipid accumulation score” value was inactive: ≤ 0. For `NCCCC[C@H](N[C@@H](CCc1ccccc1)C(=O)O)C(=O)N1CCC[C@H]1C(=O)O` [Lisinopril], the “scaled lipid accumulation score” value was inactive: ≤ 0. The “scaled lipid accumulation score” value (library stock concentration: 4.9 mM) was inactive: 0.025 and inactive: ≤ 0. Also, the “scaled lipid accumulation score” value under setting [1] was inactive: ≤ 0. On to `COc1ccc(NC(=O)c2ccc(-c3ccc(-c4noc(C)n4)cc3C)cc2)cc1OCCN(C)C`, for which the “scaled lipid accumulation score” value under setting [1] is inactive: 0.491. Turning to `CC(C)(C)NC[C@H](O)COc1nsnc1N1CCOCC1` [Timolol Maleate], the “scaled lipid accumulation score” value under setting [2] was inactive: ≤ 0 and the “scaled lipid accumulation score” value under setting [1] was inactive: ≤ -0.001. As for `CC(C)(C)NC[C@H](O)COc1nsnc1N1CCOCC1` [S(-)-Timolol maleate], under setting [1], the “scaled lipid accumulation score” value is inactive: ≤ 0 and inactive: 0.026. With `CC(C)(C)NC[C@H](O)COc1nsnc1N1CCOCC1` [Timolol maleate], the “scaled lipid accumulation score” value under setting [1] is inactive: ≤ 0. Take `CC(C)(C)NC[C@H](O)COc1nsnc1N1CCOCC1` [(S)-Timolol maleate]: the “scaled lipid accumulation score” value under setting [1] is inactive: ≤ 0. As to `CC(C)(C)NC[C@H](O)COc1nsnc1N1CCOCC1` [Timolol maleate salt], the “scaled lipid accumulation score” value is inactive: ≤ 0. Consider `CC(C)(C)NC[C@H](O)COc1nsnc1N1CCOCC1` [Timolol maleate (s)], for which, under “library stock concentration: 6.3 mM”, the “scaled lipid accumulation score” value is inactive: ≤ -0.006. On to `C[C@]12CCC(=O)C=C1CC[C@@H]1[C@@H]2[C@@H](O)C[C@@]2(C)[C@H]1CC[C@]2(O)C(=O)COC(=O)CCC(=O)O`, for which the “scaled lipid accumulation score” value under setting [1] is inactive: 0.064. For `C[C@]12CCC(=O)C=C1CC[C@@H]1[C@@H]2[C@@H](O)C[C@@]2(C)[C@H]1CC[C@]2(O)C(=O)COC(=O)CCC(=O)O` [Hydrocortisone hemisuccinate], under setting [1], the “scaled lipid accumulation score” value was inactive: ≤ 0.

In the case of `c1ccc2c(c1)CCC[C@H]2Nc1nc2ccccc2[nH]1` [NS8593 hydrochloride], under setting [1], the “scaled lipid accumulation score” value was inactive: 0.362. On to `O=C(Nc1cccc2c(=O)cc(-c3nnn[nH]3)oc12)c1ccc(OCCCCc2ccccc2)cc1` [Pranlukast], for which the “scaled lipid accumulation score” value runs as follows: under setting [3], inactive: ≤ 0; under setting [2], inactive: ≤ 0; under setting [1], inactive: ≤ 0.

For `Cn1c(=O)c2nc[nH]c2n(C)c1=O` [Theophylline], the “scaled lipid accumulation score” value under setting [1] is inactive: ≤ 0. Consider `Cn1c(=O)c2nc[nH]c2n(C)c1=O` [Theophylline monohydrate], for which the “scaled lipid accumulation score” value was inactive: ≤ 0. With `C=C1c2cccc(O)c2C(=O)C2=C(O)[C@]3(O)C(=O)C(C(N)=O)=C(O)[C@@H](N(C)C)[C@@H]3[C@@H](O)[C@H]12` [Methacycline hydrochloride], the “scaled lipid accumulation score” value is inactive: 0.049. The “scaled lipid accumulation score” value under setting [1] is inactive: ≤ 0. In the case of `COc1cc2cc3c4cc(OC)c(OC)cc4cc[n+]3c(C)c2cc1OC` [Coralyne chloride], the “scaled lipid accumulation score” value under setting [1] was inactive: ≤ 0.

On to `COc1cc2cc3c4cc(OC)c(OC)cc4cc[n+]3c(C)c2cc1OC` [Coralyne chloride hydrate], for which the “scaled lipid accumulation score” value was inactive: 0.028. As to `O=C(N[C@@H](Cc1ccccc1)C(=O)CCl)OCc1ccccc1` [Z-L-Phe chloromethyl ketone], the “scaled lipid accumulation score” value under setting [1] was inactive: 0.477.

Values taken from the supplement of paper PMC9135407.
